Test results published in patent US20140377219A1, “HIV INHIBITORS” (New york Blood Center, Inc., priority 2011, published 2014).

Columns and labels:
[1] = system: pseudovirus NL4-3-ADA-Luc (R5-tropic); conditions: read-out: Inhibition of Virus-Cell Fusion, IC50; Cells: U87-CD4-CCR5; Virus: NL4-3-ADA-Luc
[2] = system: pseudovirus NL4-3-ADA-Luc (R5-tropic); assay: microbe, parasite or virus in culture; conditions: NL43, U87/CD4/CCR5, read-out: Inhibition of Virus-Cell Fusion, IC50

Compound | IC50 [1] | IC50 [2]
Cc1ccc(NC(=O)C(=O)NC(c2nc(C)c(CO)s2)C2CCCCN2)cc1F.Cl (centres unmarked) [Compound 28, N^1-(3-fluoro-4-methylphenyl)-N^2-((5-(hydroxymethyl)-4-methylthiazol-2-yl)(piperidin-2-yl)methyl)oxalamide.HCl] | 17.3 ± 0.4 µM | –
Cc1nc(C(NC(=O)C(=O)Nc2ccc(Cl)c(F)c2)C2CCCCN2)sc1CCO.Cl (centres unmarked) [Compound 39, N^1-(4-chloro-3-fluorophenyl)-N^2-((5-(2-hydroxyethyl)-4-methylthiazol-2-yl)(piperidin-2-yl)methyl)oxalamide.HCl] | 3.7 ± 0.4 µM | –
CC1(C)CC(NC(=O)C(=O)Nc2ccc(Cl)cc2)CC(C)(C)N1 [NBD-556, reference compound] | 11 ± 1.6 µM | –
Cc1nc(C(NC(=O)C(=O)Nc2ccc(Cl)cc2)C2CCCCN2)sc1CO.Cl (centres unmarked) [Compound 6, N^1-(4-chlorophenyl)-N^2-((5-(hydroxymethyl)-4-methylthiazol-2-yl)(piperidin-2-yl)methyl)oxalamide.HCl] | 9.1 ± 0.7 µM | –
Cc1nc(C(NC(=O)C(=O)Nc2ccc(Cl)c(F)c2)C2CCCCN2)sc1CO (centres unmarked) [Compound 27, N^1-(4-chloro-3-fluorophenyl)-N^2-((5-(hydroxymethyl)-4-methylthiazol-2-yl)(piperidin-2-yl)methyl)oxalamide.2HCl] | – | 16 ± 0.6 µM

Read-outs that look alike come from different tables or passages of the source.
